Experimental data: US7589182 (LOS ALAMOS NATIONAL SECURITY, dated 2009)

Target: T1, synthetic peptide Pep1S (also: C-terminal Cys coupled to BSA or OVA via sulfo-SMCC, or to biotin)
T1 construct: Loosely based on the tyrosine sulfation site of PSGL-1; In the ELISAs it stood as the BSA conjugate BSA-1S; also called BSA-1S; OVA-1S
T1 peptide: KDKKYATE[sY]EYLDYDFC
Test: confirmatory soluble scFv ELISA on BSA-1S and BSA-1 (FIG. 2B)

- binding result: binds
B1: scFv 25 (scFv)
scFv: IVLTQSPSSLSASVGDRVIITCRASQSITKYVNWYQQKPGKAPNLLIYGASSLQSGVPSRFSGSGSGTDFTLTINSLQPEDFATYYCQQTYNVPRTFGQGTKVDIKSGGSTITSYNVYYTKLSSSGT[skipping about 100 residues]STYDSSGYYRHWYFDLWGRGTLVTVSS
notes: Soluble scFv expressed in E. coli; ELISAs used scFv-conditioned media or purified scFv, detected through the sv5 tag; also called clone scFv 25; not shown: sv5 tag of the library construct, used for detection with mouse anti-sv5

Square brackets hold non-standard residues; d marks the D form. Ends that are not written are not given here. sY = N[C@@H](Cc1ccc(OS(=O)(=O)O)cc1)C(=O)O
